For 113 molecules, displacement results are on record in PubChem BioAssay AID1240 (Sanford-Burnham Center for Chemical Genomics, 2008).

The structures appear in SMILES notation. Screen size: about 50,000 compounds; about 800 (1.6%) showed an effect of 50% or more. The list shows a part of the results.

For the experiment, the target named is Bcl-2-like protein 10 (Homo sapiens) (UniProt Q9HD36). The experiment is described as follows: Phenotype converters, Bcl-B/TR3 peptide binding displacement, primary biochemical FP (AID 1240).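 Also: 0% = Bcl-B with tracer peptide and DMSO and 100% = tracer peptide lacking Bcl-B.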 As to conditions: GST-Bcl-B / FITC-TR3 peptide fluorescence polarization; stronger effect = higher value; compound at 3.75 mg/L. (In general: In fluorescence polarisation assays a small probe gives low polarisation when free and higher when bound to something large.)
Chain of UniProt Q9HD36 (Q9HD36 whole entry, looked up): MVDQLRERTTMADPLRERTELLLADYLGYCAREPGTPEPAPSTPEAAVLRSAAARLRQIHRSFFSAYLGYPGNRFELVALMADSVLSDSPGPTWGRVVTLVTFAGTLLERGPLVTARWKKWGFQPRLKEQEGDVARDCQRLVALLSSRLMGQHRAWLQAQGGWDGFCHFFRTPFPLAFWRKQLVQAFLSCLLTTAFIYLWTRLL
Take `Clc1ccccc1CN1CCN(Cc2ccccn2)CC1`: the displacement is -0.2%.
Then `CC(C)CC(=O)N1CCN(Cc2ccco2)CC1`, with -15.1%.
With `COc1ccc(C(=O)Nc2ccc(OC)c(OC)c2)c(OC)c1`, the displacement is -4.4%.
Under `Cc1ccccc1OCC(=O)N=Nc1c(O)[nH]c(=O)[nH]c1=O` stands 6.9%.
In the case of `O=C(NC(=S)Nc1ccc(Cl)c(-c2nc3ccccc3o2)c1)c1ccco1`, the displacement stood at 5.1%.
Consider `Cn1c(=O)c2c(ncn2CC(=O)NC2CCCC2)n(C)c1=O`, for which the displacement was -5.9%.
Under `O=C1OC(c2ccccc2F)=N/C1=C\c1cccc([N+](=O)[O-])c1` stands 9.9%.
Then `O=C(O)c1cn(-c2ccccc2)nc1-c1ccc(F)cc1`, with 3.1%.
As for `CCCCOC(=O)c1ccc(NC(=O)c2oc3ccc(C)cc3c2C)cc1`, the displacement was 4.6%.
Then `CCC1CCCCN1CC(O)COCCC12CC3CC(CC(C3)C1)C2` (stereo not drawn), with 10.8%.
Under `O=C(COc1ccccc1Cl)Nn1cnnc1` stands -5.3%.
Under `Cc1csc(/C(C#N)=C/c2ccccc2Cl)n1` stands 21%.
For the molecule `COc1cccc(OCCCOc2ccc(C)cc2C)c1`, the displacement was 3.9%.
Under `N#Cc1c(/N=C/N2CCCC2)sc2c1CCCC2` stands 0.1%; under `COc1ccc(CSC2=NCCN2)cc1Br`, 0.4%.
Consider `Cc1cc(OCC(=O)Nc2ccc3c(c2)OCO3)ccc1Cl`, for which the displacement turned out to be 12.4%.
Under `COC(=O)C1(C(=O)OC)CCCC1(C(=O)OC)C(=O)OC` stands 1.2%.
Regarding `COc1cccc(/C=C2\SC(=S)N(c3cccc(Br)c3)C2=O)c1`, the displacement was 9.7%.
Under `COc1ccc(Cl)cc1N(CC(=O)Nc1cccc2cccnc12)S(=O)(=O)c1ccc(C)cc1` stands -9.2%; under `CCOc1ccc2nc(SCc3ccccn3)sc2c1`, -31%.
`Cc1nnc(SCC(=O)Nc2ccc3c(c2)oc2ccccc23)s1`: the displacement is -8.5%.
Under `CN1CCCC1=NC(=S)CN1CCCC1=S` stands 27.7%.
Then `N/C(=N\OC(=O)CCc1ccccc1)c1ccc(Cl)cc1`, with 11%.
Under `COc1ccc(-c2cc(C(=O)Nc3nc(-c4ccccc4)c(C)s3)c3ccccc3n2)c(OC)c1` stands -14.2%.
As to `COc1ccc(Cl)cc1NC(=O)CCN1C(=O)c2ccccc2C1=O`, the displacement is -16.4%.
Under `Cc1ccc(S(=O)(=O)N(Cc2ccccc2)c2ccccc2C(=O)NC(C)C)cc1` stands 5.9%; under `CCOP(=O)(OCC)C(Nc1ccc(I)cc1)c1ccc(O)cc1` (stereo not drawn), 12.6%; under `COc1ccccc1-c1cc(-c2ccccc2)nc(SC(C(N)=O)c2ccccc2)c1C#N` (stereo not drawn), 0.6%.
Take `COC(=O)C1=NN(C(=O)c2ccc(C)cc2)C(O)(c2ccc(Cl)cc2)C1` (stereo not drawn): the displacement was -3.6%.
Turning to `O=C1N=C(N2CCCCCC2)S/C1=C\c1ccccc1Cl`, the displacement was -15.1%.
Take `Cc1ccc(C(=O)Nc2c(C(=O)Nc3ccccc3)cnn2-c2ccccc2)cc1`: the displacement amounted to 23.8%.
Then `CCOC(=O)c1c(N)sc(C)c1CC`, with -10.9%; and `O=C(Nc1ccc(Oc2ccccc2)cc1)C1COc2ccccc2O1` (stereo not drawn), with -7.4%; and `COc1ccccc1/C=N/NC(=O)C1CC(=O)N(c2ccccc2)C1` (stereo not drawn), with -6.2%.
Then `CC1(C)Cc2ccccc2-c2nnc(C(F)(F)F)n21`, with 7.1%; and `COc1nccnc1NS(=O)(=O)c1ccc(N)cc1`, with -1.2%.
Turning to `COc1ccccc1C1SCCN1S(=O)(=O)c1ccc(-c2ccccc2)cc1` (stereo not drawn), the displacement is 16.3%.
On to `Cc1c(NS(=O)(=O)c2cc(Cl)ccc2Cl)cccc1[N+](=O)[O-]`, for which the displacement is -0.1%.
Consider `CC(C)c1ccccc1NC(=O)CCN1C(=O)c2ccccc2C1=O`, for which the displacement is -6%.
As to `COc1ccccc1/C=N/NC(=O)c1cc(-c2ccc3ccccc3c2)n[nH]1`, the displacement is -13.4%.
Then `CCOC(=O)c1c(N)n(-c2ccc(OC)cc2)c2nc3ccccc3nc12`, with 12%.
Under `CCC1CCCCN1CCCOc1ccc(Br)cc1` (stereo not drawn) stands -1.6%; under `O=C(Cc1ccc([N+](=O)[O-])cc1)N1N=C(c2cccnc2)CC1(O)C(F)(F)F` (stereo not drawn), -3.2%; under `NC(=O)c1cc(NC(=O)c2cccs2)cc(C(N)=O)c1`, -4.3%.
`Cc1ccc(/C=C2\SC(=S)N(CC(C)C)C2=O)o1`: the displacement is 36.3%.
`COc1cc(NC(=O)c2cc(-c3cccs3)nc3ccccc23)c(OC)cc1Cl`: the displacement was 55.2%.
Under `CC(=O)N1C(=O)/C(=C2/SC(=Nc3ccc(Br)cc3)NC2=O)c2ccccc21` stands 21.1%.
Under `Cc1cccc(NC(=O)C2CCCN2C(=O)OC(C)(C)C)c1` (stereo not drawn) stands 3.5%; under `Cc1nc2ccccc2n1CCOc1ccc(F)cc1`, -3.3%.
Then `O=C(O)CN1C(=O)/C(=C2\SC(=S)N(C(Cc3ccccc3)C(=O)O)C2=O)c2ccccc21` (stereo not drawn), with 10.2%.
For the molecule `O=C(CSc1nnnn1-c1ccccc1)Nc1ccc([N+](=O)[O-])cc1`, the displacement was found to be 0.6%.
Then `Brc1ccc(CN2CCN(C3CCCCC3)CC2)cc1`, with -6.2%.
Then `C=CCc1cccc(/C=N/NC(=O)c2cccc(N3CCCC3=O)c2)c1O`, with -1.8%.
Then `CC(=O)c1c(C)[nH]c(C(=O)OCc2ccccc2)c1C`, with -0.2%; and `CC(C)Nc1nc(-c2cccnc2)nc2ccccc12`, with 20.9%.
Take `CC1=C(C(=O)OC2CCCCC2)C(c2ccc(N(C)C)cc2)NC(=O)N1` (stereo not drawn): the displacement was found to be 99.1%.
In the case of `CC(C)COc1ccc(/C=C2\SC(=S)NC2=O)c2ccccc12`, the displacement was 37.1%.
Regarding `Cc1nc2cc(Nc3nnc(-c4ccccc4)c4ccccc34)ccc2n1C`, the displacement was determined as 11.6%.
Then `COCCCNC(=O)CN(c1ccc(OC)c(Cl)c1)S(C)(=O)=O`, with -0.1%.
Then `COC(=O)c1c(C)oc2ccc(OC(=O)c3ccccc3)cc12`, with 11.7%.
For the molecule `O=C(/C=C/c1ccc([N+](=O)[O-])cc1)c1ccc(OC(F)F)cc1`, the displacement was 9.7%.
Under `Cc1ccc(S(=O)(=O)/N=C(/CSC(N)=O)Nc2ccccc2)cc1` stands 16.6%.
Under `CCOc1ccc(N(CC(=O)Nc2ccccc2C(F)(F)F)S(C)(=O)=O)cc1` stands -2.1%; under `CC(=O)CC(=O)Nc1ccc(Nc2ccccc2)cc1`, -2.9%; under `COc1ccccc1N(C=NC#N)CC#N`, -6.4%.
Under `CC1=NN(C(=O)c2ccccc2Cl)C(O)(c2ccc(Cl)cc2)C1` (stereo not drawn) stands -16.6%.
Consider `CCC(C)c1ccc(NC(=O)c2c(-c3c(Cl)cccc3Cl)noc2C)cc1` (stereo not drawn), for which the displacement amounted to 4.5%.
As to `CC1=NNC(=O)C1CC(=O)N/N=C/c1ccccc1O` (stereo not drawn), the displacement is -17.4%.
Turning to `Cn1c(=O)cc2c3c(c(N)ccc31)C(=O)c1ccccc1-2`, the displacement is 139%.
Under `O=C(CCCOc1ccccc1)NCc1ccco1` stands -5.7%; under `CCOC(=O)C(=CNc1cc(Cl)c(Cl)cc1Cl)C(=O)OCC`, -3.2%.
Under `c1ccc2c(c1)ncn2CCn1cnc2ccccc21` stands -4.6%; under `COc1ccc2nc(SCC(=O)Nc3ccc(Cl)c(Cl)c3)[nH]c2c1`, -2.7%.
Take `Cc1cc(C)nc(N/N=C/c2cc3c(cc2[N+](=O)[O-])OCO3)n1`: the displacement was 7.8%.
On to `O=C(Nc1nc2ccccc2n1CCOc1ccccc1)c1ccc(F)cc1`, for which the displacement is -12.2%.
Take `COc1cccc(Nc2ccccc2C)c1`: the displacement is -9.3%.
Then `O=C1NC(=O)N(c2ccc(Br)cc2)C(=O)/C1=C\c1ccc(-c2ccccc2[N+](=O)[O-])o1`, with 14.5%; and `O=[N+]([O-])c1cccc(Cl)c1N1CCN(S(=O)(=O)c2ccccc2)CC1`, with 5.1%; and `CCCCSCc1nc2c(c(=O)[nH]1)C1(CCCC1)Cc1ccccc1-2`, with 0.3%.
Take `c1ccc(-c2nc(-c3cccnc3)no2)cc1`: the displacement is -3.9%.
Under `Cc1ccccc1OCC(=O)NCc1ccncc1` stands 1.2%; under `O=S(=O)(Nc1ccc2oc(-c3cc(Br)ccc3Cl)nc2c1)c1ccccc1`, 5%.
Then `Clc1ccc(OCCSc2nnnn2-c2ccccc2)cc1`, with 5.2%; and `COC(=O)c1ccccc1-c1ccc(/C=C2/SC(=S)N(CC(=O)O)C2=O)o1`, with 5.3%; and `N/C(=N\OS(=O)(=O)c1ccc([N+](=O)[O-])cc1)c1ccncc1`, with -0.6%.
Then `O/N=C\c1ccc2c(c1)OCCOCCOc1cc(/C=N/O)ccc1OCCOCCO2`, with -1.8%.
`O=[N+]([O-])c1cccc(S(=O)(=O)Nc2ccc(O)c(Cl)c2)c1`: the displacement was determined as 11.6%.
Under `CC(C)c1ccc(N(CC(=O)NC(C)c2ccccc2)S(=O)(=O)c2ccccc2)cc1` (stereo not drawn) stands 5.9%; under `CS(=O)(=O)N(Cc1ccc(Cl)cc1)c1ccc(C(=O)Nc2cccc(C(F)(F)F)c2)cc1`, 10.7%.
`Oc1c(C=Nc2cccc(Br)c2)sc2ccccc12`: the displacement is -3.9%.
For the molecule `COc1ccc(C2CC(=O)C3=C(C2)Nc2ccccc2NC3c2cccc(Br)c2)cc1` (stereo not drawn), the displacement stood at 4.5%.
In the case of `CCCCOC(=O)c1cccc(NC(=O)c2c(-c3ccccc3Cl)noc2C)c1`, the displacement was -4.6%.
Under `O=C(CCCN1C(=O)c2ccccc2C1=O)N(Cc1ccccc1)Cc1ccccc1` stands 6.1%.
Then `COc1ccc(-c2nc(=NC(=O)c3ccco3)sn2-c2ccccc2)cc1`, with 3.4%; and `COc1ccc(CN2CCN(Cc3ccccn3)CC2)c(OC)c1`, with -17.1%.
Then `O=C(O)CN1C(=O)/C(=C/c2ccc(-c3ccccc3[N+](=O)[O-])o2)SC1=S`, with 23%; and `COc1ccc(C(=O)N2N=C(C(F)(F)F)CC2(O)c2ccccc2)cc1` (stereo not drawn), with 15.7%.
In the case of `O=C(/C=C/c1ccccc1)Nc1ccc(O)c(-c2nc3ccccc3o2)c1`, the displacement was -3.2%.
Under `O=C(O)C1C2CCC(C2)C1C(=O)NCC1CCCO1` (stereo not drawn) stands -11%; under `COc1ccc(CC(=O)NC2CC(C)(C)NC(C)(C)C2)cc1OC`, -11.5%; under `COc1ccccc1C(=O)N1CCN(S(=O)(=O)c2ccccc2)CC1`, -3.6%.
Under `Cc1ccc2nc(/N=C(/N)NC(=O)Cc3ccccc3)nc(C)c2c1` stands 1.7%; under `CN1C(=O)C(=Cc2ccc(-c3cc(Cl)ccc3Cl)o2)C(=O)N(C)C1=O`, 3.8%.
Under `COc1ccc(/C=C/C(=O)NC(=S)Nc2ccc(I)cc2)cc1OC` stands 10%.
On to `COC(=O)c1sccc1NS(=O)(=O)c1cc(Cl)ccc1Cl`, for which the displacement was -9.2%.
Then `Cc1ccsc1C=Nc1ccc(Br)cn1`, with 4.3%; and `COc1ccc(/C=C2\C=C(c3ccc(Cl)cc3)OC2=O)cc1OC`, with 147%; and `CC(=O)Nc1ccc(C(=O)Nc2ccc(Cl)cn2)cc1`, with 20%.
Then `Cn1/c(=N/N=C/c2cc(Br)ccc2O)sc2ccccc21`, with -9.5%; and `COc1ccc(C(=O)Nc2ccc(-c3nc4ccccc4c(=O)o3)cc2)cc1`, with -2.3%.
Then `O=[N+]([O-])c1ccc(N=Cc2c[nH]c3ccccc23)cc1`, with 4.3%; and `CCOC(=O)C1=C(C)N=c2s/c(=C\c3ccccn3)c(=O)n2C1c1ccc(Cl)cc1` (stereo not drawn), with 10.7%.
As for `COC(=O)COc1ccc(/C=C2\C(=O)NC(=O)N(c3cc(C)cc(C)c3)C2=O)cc1OC`, the displacement was 3.4%.
